Source: paper PMC4336329 (PLoS ONE, 2015)
About 14,000 (4.5%) of roughly 310,000 compounds showed an effect of 50% or more. Effects have a minus sign here. The list shows a part of the results.

Target: human ether-à-go-go-related gene (hERG) potassium channel (human, UniProt Q12809)
Assay: primary screen, population patch clamp on CHO cells stably expressing hERG
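Further: peak tail current of the secondary pulse compared with the same well before compound.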

human ether-à-go-go-related gene (hERG) potassium channel, sequence (Q12809 whole entry, looked up): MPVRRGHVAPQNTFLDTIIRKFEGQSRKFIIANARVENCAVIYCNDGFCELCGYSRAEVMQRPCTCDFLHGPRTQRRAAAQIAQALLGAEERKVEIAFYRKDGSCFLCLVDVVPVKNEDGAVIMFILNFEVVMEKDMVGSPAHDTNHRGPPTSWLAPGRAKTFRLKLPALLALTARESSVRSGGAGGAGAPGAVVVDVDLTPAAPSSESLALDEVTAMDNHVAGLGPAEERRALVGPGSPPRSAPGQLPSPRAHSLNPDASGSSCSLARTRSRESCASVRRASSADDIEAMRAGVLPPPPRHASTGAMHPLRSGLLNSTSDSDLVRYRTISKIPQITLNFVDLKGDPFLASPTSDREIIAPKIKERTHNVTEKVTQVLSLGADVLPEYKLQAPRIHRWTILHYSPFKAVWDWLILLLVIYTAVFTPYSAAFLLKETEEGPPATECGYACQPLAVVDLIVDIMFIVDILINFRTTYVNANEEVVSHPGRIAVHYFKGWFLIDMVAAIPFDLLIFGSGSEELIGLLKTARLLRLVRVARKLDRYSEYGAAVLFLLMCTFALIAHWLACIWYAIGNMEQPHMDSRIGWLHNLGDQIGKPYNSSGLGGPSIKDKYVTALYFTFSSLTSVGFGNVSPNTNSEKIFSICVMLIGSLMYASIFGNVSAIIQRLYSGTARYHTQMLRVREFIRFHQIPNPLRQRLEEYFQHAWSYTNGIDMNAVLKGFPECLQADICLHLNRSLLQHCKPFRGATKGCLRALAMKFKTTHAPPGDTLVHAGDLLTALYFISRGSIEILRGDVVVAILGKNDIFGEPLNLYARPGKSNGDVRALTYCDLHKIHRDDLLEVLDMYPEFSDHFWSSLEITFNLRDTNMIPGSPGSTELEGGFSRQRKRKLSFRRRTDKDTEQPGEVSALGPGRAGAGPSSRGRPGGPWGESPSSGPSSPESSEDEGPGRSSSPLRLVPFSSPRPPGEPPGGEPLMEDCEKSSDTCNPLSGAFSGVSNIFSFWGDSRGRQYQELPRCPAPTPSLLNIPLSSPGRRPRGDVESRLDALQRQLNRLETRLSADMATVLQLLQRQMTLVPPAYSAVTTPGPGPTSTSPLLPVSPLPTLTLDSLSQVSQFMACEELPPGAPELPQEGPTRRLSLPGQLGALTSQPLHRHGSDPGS

Compound	hERG current change (%, negative = inhibition) at 10uM
O=C(CSc1nnc(-c2cccnc2)o1)NNC(=O)c1ccc(Br)cc1	2.19%
O=C1CCC(C(=O)NCCCn2ccnc2)N1 (centres unmarked)	10.7%
COc1cc2c(cc1OC)CN(C(=O)Nc1ccccc1)CC2	16.2%
O=c1[nH][nH]c(C(F)(F)F)c1C=Nc1ccccc1	11.6%
O=C(NCCN1CCOCC1)c1ccc(NC(=O)C2COc3ccccc3O2)cc1 (centres unmarked)	13.5%
O=C(C1CCCN(S(=O)(=O)c2ccc(Cl)cc2)C1)N(Cc1cccs1)C1CC1 (centres unmarked)	-63%
COc1ccc(NC(=O)c2cc3c(CO)cnc(C)c3oc2=Nc2cc(OC)cc(OC)c2)cc1	29%
O=C(OCc1ccccc1)C1CCCN1C(=O)c1cccs1 (centres unmarked)	-1.75%
COc1ccc(/C=C(\NC(=O)c2ccc([N+](=O)[O-])cc2)C(=O)NCCCN2CCOCC2)cc1	-77%
CCCCn1c(SCC(=O)NCc2ccc(OC)c(C(=O)O)c2)nc2cc(S(N)(=O)=O)ccc21	25.8%
O/N=C(\c1ccc(Cl)cc1)c1ncc(C(F)(F)F)cc1Cl	5.85%
CCc1ccc(CNCCc2ccccc2F)cc1	-67.7%
O=[N+]([O-])c1ccc(N2CCN(c3cccc(Cl)c3)CC2)cn1	-63.2%
CCc1ccc(NC(=O)C(C)OC(=O)c2cc(=O)[nH]c3ccc(S(=O)(=O)Nc4ccc(F)cc4)cc23)cc1 (centres unmarked)	10.4%
CCOC(=O)CSc1nnc(-c2c[nH]c3ccccc23)o1	6.78%
Cc1cc(OC(=O)c2ccccc2C(F)(F)F)c([N+](=O)[O-])c(=O)[nH]1	3.81%
Cn1c(N)c(C(=O)COC(=O)c2ccc(Cl)nc2)c(=O)n(C)c1=O	0.356%
CCOc1cccc(C2CC(=O)Nc3cc(OC)c(OC)cc32)c1 (centres unmarked)	-5.69%
Cc1cc(-c2ccc(S(=O)(=O)N3CCN(c4cccc(C)c4C)CC3)s2)on1	-26.7%

Compound	hERG current change (%, negative = inhibition) at 10uM
COc1ccc(S(=O)(=O)N2CCC(Cc3ccccc3)CC2)cc1NC(C)=O	20.5%
O=C(NCCc1ccncc1)Nc1ccccc1	-4.94%
CCc1ccccc1OCC(=O)Nc1ccc(C)c(S(=O)(=O)N2CCCCCC2)c1	-11%
Cc1ccc(CNC(=O)c2cncc(Br)c2)cc1	6.72%
CCc1nnc(NC(=O)Cc2ccc(OCc3c(C)noc3C)cc2)s1	2.89%
CC(=O)NS(=O)(=O)c1ccc(NC(=S)NC(=O)C(C)(C)C)cc1	-10.6%
CCC(Sc1nnnn1-c1ccccc1)C(=O)NC(C)c1ccccc1 (centres unmarked)	-17.9%
CC1(c2nnc(-c3ccccc3)o2)CC(c2ccc([N+](=O)[O-])cc2)=NO1 (centres unmarked)	4.53%
COC(=O)c1c(-c2c(Cl)cccc2Cl)noc1NC(=O)NN1CCOCC1	-10.3%
O=c1c2cnn(-c3ccccc3)c2nnn1Cc1ccccn1	-21.9%
CCCC(=O)NC(=S)Nc1ccc(N2CCOCC2)c(Cl)c1	-13.4%
CC(=O)/C(C#N)=C1\NC(=O)C(Cc2ccccc2Cl)S1 (centres unmarked)	2.38%
Cn1cccc1C1C(C#N)=C(N)OC2=C1C(=O)CC(C)(C)C2 (centres unmarked)	-1.67%
O=C(Cc1ccc(Cl)c(Cl)c1)Nc1cccc2ncccc12	20.2%
O=C(CCN1CCN(Cc2ccccc2)CC1)Nc1cccc(Cl)c1	-70.6%
O=C(NCCS(=O)(=O)N1CCN(c2ccccc2)CC1)c1ccc2c(c1)OCO2	-3.59%
O=C(Cc1n[nH]c(=O)c2ccccc12)OCC(=O)c1ccc(OC(F)F)cc1OC(F)F	-8.78%
S=C(NCc1ccccc1)NCc1ccco1	8.29%
COc1ccc(S(=O)(=O)N2CCCCC2)cc1NC(=O)c1ccccc1	13.7%

Compound	hERG current change (%, negative = inhibition) at 10uM
COc1cc(NC(=O)c2ccc(C)cc2)c(OC)cc1NC(=O)CN1CCCCC1	-15.1%
COCCCN1C(=O)c2ccc(C(=O)NCc3ccccn3)cc2C1=O	-1.71%
Cc1ccc2[nH]c(C)c(/C=N/Nc3nc4ccccc4s3)c2c1	0.648%
O=C(NCc1cccnc1)C(=O)Nc1nccs1	22%
COc1cc(OC)cc(C(=O)NNC(=O)CCC(=O)c2cccs2)c1	17.6%
COc1cc(CC(=O)OCC(=O)Nc2ccc3c(c2)OCO3)cc(OC)c1OC	5.01%
O=C(NCCCN1CCOCC1)c1c(F)c(F)c(F)c(F)c1F	20.7%
O=C(OCc1ccc(COC(=O)c2ccc(O)cc2)cc1)c1ccc(O)cc1	9.09%
COc1cc([N+](=O)[O-])ccc1NC(=S)N1CCN(c2ccccn2)CC1	-39.4%
CCSC1(SCC)N=C(N)C2(C#N)C(c3ccccc3)NC3=C(CCC3)C12C#N (centres unmarked)	13%
O=C(CNC(=O)c1ccc(Br)cc1)N=Nc1c(O)[nH]c2ccc([N+](=O)[O-])cc12	9.35%
Cn1c(CSCc2ccc(Cl)cc2Cl)n[nH]c1=S	7.37%
COc1ccccc1Nc1cc(C(=O)N2CCc3ccccc3C2)c2ccccc2n1	-12.4%
CCOC(=O)C1CCCN(Cc2cc(OC)c(O)c(OC)c2)C1 (centres unmarked)	-2.31%
COc1ccc(S(=O)(=O)N(C)CC(=O)Nc2ccc(C(F)(F)F)cc2)cc1Cl	17.1%
O=C(Nc1ccccc1N1CCOCC1)c1cc(Cl)c2c(c1)OCO2	19.7%
CCOC(=O)c1ccccc1NC(=O)c1c(O)c2ccccc2n(CC)c1=O	11.6%
CC(C)(C)c1ccc(-c2nnc(SCCC#N)n2C2CCCC2)cc1	3.79%
